About 7,500 (2.1%) of roughly 360,000 compounds were called active. This list was built around the results that the source calls inconclusive (neither active nor inactive); the mix of calls is not that of the screen. Calls follow the shape of the dose curve; as a rule, active = well fitted cell-killing curve with a large enough effect; inconclusive = small, poorly fitted or top-dose-only effect, or effect the other way, or another doubt; inactive = no such curve, though single readings can be large or run the other way. No potency is given beside an inconclusive call; the fits are too rough.
Test: qHTS for induction of synthetic lethality in tumor cells producing 2HG: qHTS for the HT-1080-IDH1KD cell line;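 as to activity, negative = toxicity: 0% = DMSO wells and -100% = cell-free medium wells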
Details: HT-1080 IDH1 knockdown viability, ATP luminescence, 48 h; activity, negative = toxicity: at 46.1 µM (top of the series) unless noted
Summary of the method: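 % activity derives from luminescence (CellTiter-Glo), normalised to DMSO and no-cell wells. HT-1080-IDH1KD cells, 750/well, had 48 h compound exposure at 37 °C.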
Potency is read from the fitted curve at half-maximal effect; tags tell the direction and shape of the fitted curve.

Row | SMILES | Potency | activity, negative = toxicity
1 | CCC(=O)N1CCN(c2ccc(NC(=O)c3cc4ccccc4o3)cc2Cl)CC1 | active: 16.4 µM | –
2 | CC(C)C[C@H]1CNC(=O)C(=O)N1C[C@@H]1CCCN1C[C@H](Cc1ccccc1)N1C[C@H](CC(C)C)N(CC2CCCCCC2)C(=O)C1=O | inconclusive [rising, single point] | –
3 | Cc1cc(C)cc(NC(=S)N(Cc2ccc(Cl)cc2)Cc2ccc(C(=O)O)cc2)c1 | inconclusive [cytotoxic, single point] | –
4 | N#CCSc1ccccc1NC(=O)COC(=O)C1CCN(C(=O)c2ccc(Cl)cc2)CC1 | inactive | –
5 | Oc1ccc(N=Nc2ccc3c(c2)OCCO3)c2cccnc12 | active: 1.3 µM | –
6 | Cc1nc(N)sc1N=Nc1ccc(F)cc1 | inconclusive [cytotoxic, single point] | –
7 | COc1ccc(NC(=O)CS(=O)(=O)Cc2nc(-c3ccc(C)cc3)oc2C)cc1 | inconclusive [cytotoxic, partial curve] | –
8 | C=CCn1c(C)cc(C(=O)COc2ccc(C)nc2[N+](=O)[O-])c1C | inconclusive [cytotoxic, single point] | –
9 | O=S(=O)(NCc1csc(-c2cccs2)n1)c1ccc(Cl)cc1 | inactive | –
10 | CC(=O)CCc1ccc(Oc2nc(-c3cccnc3)nc3ccccc23)cc1 | inconclusive [cytotoxic, single point] | –
11 | c1ccc(COc2ccc(-c3cc4nc(NCc5ccc6c(c5)OCO6)ccn4n3)cc2)cc1 | inconclusive [cytotoxic, single point] | –
12 | CCn1c(SCC(=O)Nc2cc(C)on2)nc2sc3c(c2c1=O)CCCC3 | inconclusive [cytotoxic, full curve, poor fit] | –
13 | CCC(=O)Nc1cccc(C(=O)/C=C/c2ccccc2)c1 | inconclusive [cytotoxic, partial curve] | –
14 | Nc1nc(CN2CCN(Cc3ccccc3)CC2)nc(Nc2ccccc2)n1 | inconclusive [cytotoxic, single point] | –
15 | CC(=O)/C(=C/c1ccccc1)C(=O)Nc1ccccc1C | inconclusive [cytotoxic, single point] | –
16 | Cc1ccccc1NC(=O)c1ccc([N+](=O)[O-])o1 | active: 25.9 µM | –
17 | Cc1ccc(-c2nc(C=Nc3ccc(O)cc3)c(O)o2)cc1 | inconclusive [cytotoxic, single point] | –
18 | O=C(Nc1ccc(C(F)(F)F)cc1Cl)c1ccc(Cn2cc(Br)cn2)o1 | inconclusive [cytotoxic, single point] | –
19 | O=[N+]([O-])c1cccnc1N/N=C/c1ccccc1O | inconclusive [cytotoxic, full curve] | –
20 | CCn1cc(/C=N/NS(=O)(=O)c2ccc(OC)cc2)c(C)n1 | inactive | –
21 | COC(=O)c1ccc(/C=C2\SC(=S)N(CCCC(=O)NCCCN3CCOCC3)C2=O)cc1 | inconclusive [cytotoxic, single point] | –
22 | CCCCCCCCN1C(=O)[C@H](CC(=O)NCCCOCCCC)C[C@@]2(C(=O)OCC)CCCC=C12 | inconclusive [cytotoxic, single point] | –
23 | C[C@H](CO)N1C[C@H](C)[C@H](CN(C)Cc2cccc(O)c2)OCc2ccccc2-c2c(n(C)c3ccccc23)C1=O | inconclusive [cytotoxic, single point] | –

Row | SMILES | Potency | activity, negative = toxicity
24 | COc1ccc(C(=O)Oc2cccc(Nc3ncnc4ccccc34)c2)cc1OC | inactive | –
25 | Cc1sc(NC(=O)C2C3CCC(O3)C2C(=O)O)nc1-c1ccc(CC(C)C)cc1 (stereo not given) | inconclusive [cytotoxic, partial curve] | –
26 | COc1cc(-c2nc(-c3ccccc3)c(-c3cccs3)[nH]2)cc(OC)c1OC | inconclusive [cytotoxic, single point] | –
27 | O=C(Nc1ccc(OC(F)(F)F)cc1)c1ccc2c(c1)no[n+]2[O-] | active: 11.6 µM | –
28 | CCOC(=O)c1cc(-c2ccccc2)n(CC(=O)NC(C)(C)C)c1C | inactive | –
29 | O=C(N/N=C/c1c(O)n(-c2ccccc2Cl)c(=O)c2ccccc12)C1COc2ccccc2O1 (stereo not given) | inconclusive [cytotoxic, single point] | –
30 | CN(C)S(=O)(=O)c1ccc2c(c1)nc(CCC(=O)Nc1ccc3c(c1)OCO3)n2C | inactive | –
31 | Cc1onc(-c2ccccc2)c1C(=O)NNC(=S)NC(=O)/C=C/c1ccccc1 | inconclusive [cytotoxic, single point] | –
32 | CCOC(=O)c1c(-c2ccc(F)cc2)csc1/N=C/N(C)C | inactive | –
33 | O=C1CCCCC/C1=N/Nc1ccc(OCc2ccccc2)cc1 | inconclusive [cytotoxic, single point] | –
34 | CCOc1ccccc1C(=O)NC(C)c1ccc2c(c1)OCO2 (stereo not given) | inconclusive [cytotoxic, single point] | –
35 | CC(SCc1ccc(C(=O)O)o1)c1ccc(C(=O)O)o1 (stereo not given) | inactive | –
36 | CCOc1cc(S(=O)(=O)NCc2ccncc2)ccc1Cl | inconclusive [cytotoxic, full curve] | –
37 | COc1ccc(OCCC(=O)OCC(=O)NC2CCCCC2)cc1 | inactive | –
38 | CCC(C)NC(=O)c1ccccc1NC(=O)/C(=C/c1ccc(OC)cc1)c1ccccc1 (stereo not given) | – | inconclusive: 33.2%
39 | COC(=O)c1sc(N2CCN(c3ccc(Cl)cc3)CC2)nc1N | inconclusive [cytotoxic, single point] | –
40 | CCN(CC(=O)NCc1ccc(F)cc1)CC(=O)Nc1ccc(S(=O)(=O)N2CCCC2)cc1 | inactive | –
41 | CC1CCCCC1NC(=O)CCn1c(=O)oc2ccccc21 (stereo not given) | – | inconclusive: -2.25% [cytotoxic]
42 | CCCCNc1nc(NCc2ccccc2)nc2ccccc12 | active: 16.4 µM | –
43 | Cc1ccc(/C=N/NC(=O)CNC(=O)COc2ccccc2)o1 | inconclusive [rising, single point] | –
44 | C[C@]12CC[C@@H]3c4cc(O)c(O)cc4CC[C@H]3[C@@H]1CC[C@@H]2O | active: 6.51 µM | –
45 | CCCc1c(-c2cccc(F)c2)ncn1Cc1ccccc1OC | inconclusive [cytotoxic, single point] | –

Reference: PubChem BioAssay AID686971 (National Center for Advancing Translational Sciences (NCATS), 2013)
